Results as given in the supplement of paper PMC4967469.
IC50 is the fitted dose that halves viability relative to control wells, and lower means more sensitive; a fit beyond the top or the lowest dose is shown as a bound at that dose. AUC is the area under the same curve over the 256-fold range up to the top dose, as a fraction; values near 1 show little effect. Where the top dose is marked as inferred, it was derived from the fitted curves, not read from the paper.

What was measured:
Assay in all cases: Viability of human cancer cell lines after 72 h of drug (GDSC screen)
[1] = compound: CC(C)(C)OC(=O)Nc1ccc(-c2cc(C(=O)NCCCCCCC(=O)NO)no2)cc1 [CAY10603]; settings: top dose 20 µM; top dose inferred
Procedure: (§1)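 Human cancer cell lines in 384-well plates, medium with 10% serum, drug for 72 h over a 256-fold dose range (nine 2-fold or five 4-fold steps up to the top dose). Adherent lines were fixed and stained with the nucleic acid dye Syto60, suspension lines read with resazurin; signal relative to control wells, capped at 0 and 100%. One two-parameter sigmoid per drug and line, fitted in a mixed model over all curves with the slope shared within a line.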

[2] = compound: CCOc1cc(N2CCC(O)CC2)ccc1Nc1ncc2c(n1)N(C)c1ccccc1C(=O)N2C [XMD8-92]; settings: top dose 10 µM; top dose inferred
Procedure: as §1

[3] = compound: CCc1cc2c(cc1N1CCC(N3CCOCC3)CC1)C(C)(C)c1[nH]c3cc(C#N)ccc3c1C2=O [CH5424802]; settings: top dose 5.12 µM; top dose inferred
Procedure: as §1

[4] = compound: N#Cc1c(C2CCNCC2)cc(-c2c(O)cccc2OCC2CC2)nc1N [ACHP (KIN001-260)]; settings: top dose 20 µM; top dose inferred
Procedure: as §1

Row | Cell Line | AUC [1] | IC50 [1] | AUC [2] | IC50 [2] | AUC [3] | IC50 [3] | AUC [4] | IC50 [4]
1 | DoTc2-4510 (cervix, adherent) | 0.725 | 5.24 µM | 0.894 | > 10 µM | 0.985 | > 5.12 µM | 0.984 | > 20 µM
2 | EC-GI-10 (oesophagus, adherent) | 0.982 | > 20 µM | 0.926 | > 10 µM | 0.989 | > 5.12 µM | 0.988 | > 20 µM
3 | EFM-192A (breast, adherent) | 0.625 | 2.87 µM | 0.971 | > 10 µM | 0.983 | > 5.12 µM | 0.964 | > 20 µM
4 | EKVX (lung adenocarcinoma, adherent) | 0.799 | > 20 µM | 0.924 | > 10 µM | 0.959 | > 5.12 µM | 0.962 | > 20 µM
5 | EMC-BAC-1 (lung adenocarcinoma, adherent) | 0.592 | 2.31 µM | 0.929 | > 10 µM | 0.83 | 3.83 µM | 0.953 | > 20 µM
6 | EMC-BAC-2 (lung adenocarcinoma, adherent) | 0.509 | 1.33 µM | 0.848 | 9.62 µM | 0.974 | > 5.12 µM | 0.982 | > 20 µM
7 | EN (endometrium, adherent) | 0.566 | 1.99 µM | 0.98 | > 10 µM | 0.977 | > 5.12 µM | 0.945 | > 20 µM
8 | EPLC-272H (lung squamous cell carcinoma, adherent) | 0.354 | 0.466 µM | 0.823 | 6.95 µM | 0.851 | 4.75 µM | 0.926 | > 20 µM
9 | ES1 (Ewing sarcoma, adherent) | 0.324 | 0.406 µM | 0.936 | > 10 µM | 0.986 | > 5.12 µM | 0.921 | > 20 µM
10 | ES3 (Ewing sarcoma, adherent) | 0.387 | 0.6 µM | 0.882 | > 10 µM | 0.902 | > 5.12 µM | 0.932 | > 20 µM
11 | ES4 (Ewing sarcoma, adherent) | 0.659 | 3.71 µM | 0.919 | > 10 µM | 0.98 | > 5.12 µM | 0.953 | > 20 µM
12 | ES5 (Ewing sarcoma, adherent) | 0.2 | 0.137 µM | 0.87 | > 10 µM | 0.821 | 3.57 µM | 0.882 | > 20 µM
13 | ES6 (Ewing sarcoma, adherent) | 0.552 | 1.79 µM | 0.979 | > 10 µM | 0.893 | > 5.12 µM | 0.898 | > 20 µM
14 | ES7 (Ewing sarcoma, adherent) | 0.214 | 0.175 µM | 0.939 | > 10 µM | 0.816 | 2.93 µM | 0.815 | 11.4 µM
15 | ES8 (Ewing sarcoma, adherent) | 0.238 | 0.234 µM | 0.911 | > 10 µM | 0.969 | > 5.12 µM | 0.859 | 14.6 µM
16 | ES-2 (ovary, adherent) | 0.275 | 0.317 µM | 0.99 | > 10 µM | 0.991 | > 5.12 µM | 0.916 | > 20 µM

Row | Cell Line | AUC [1] | IC50 [1] | AUC [2] | IC50 [2] | AUC [3] | IC50 [3] | AUC [4] | IC50 [4]
17 | ESO26 (oesophagus, adherent) | 0.49 | 1.18 µM | 0.859 | 7.52 µM | 0.857 | 3.8 µM | 0.955 | > 20 µM
18 | ESO51 (oesophagus, semi-adherent) | 0.545 | 1.74 µM | 0.978 | > 10 µM | 0.92 | > 5.12 µM | 0.931 | > 20 µM
19 | ESS-1 (endometrium, adherent) | 0.478 | 1.1 µM | 0.944 | > 10 µM | 0.947 | > 5.12 µM | 0.99 | > 20 µM
20 | ETK-1 (biliary tract, adherent) | 0.544 | 1.67 µM | 0.859 | > 10 µM | 0.973 | > 5.12 µM | 0.868 | > 20 µM
21 | EVSA-T (breast, adherent) | 0.429 | 0.824 µM | 0.917 | > 10 µM | 0.877 | 3.89 µM | 0.501 | 1.25 µM
22 | EW-1 (Ewing sarcoma, semi-adherent) | 0.292 | 0.343 µM | 0.988 | > 10 µM | 0.973 | > 5.12 µM | 0.851 | 13.4 µM
23 | EW-7 (Ewing sarcoma, semi-adherent) | 0.395 | 0.668 µM | 0.986 | > 10 µM | 0.903 | > 5.12 µM | 0.852 | 12.7 µM
24 | EW-11 (Ewing sarcoma, adherent) | 0.443 | 0.838 µM | 0.814 | 7.53 µM | 0.633 | 0.833 µM | 0.952 | > 20 µM
25 | EW-16 (Ewing sarcoma, adherent) | 0.347 | 0.461 µM | 0.96 | > 10 µM | 0.971 | > 5.12 µM | 0.923 | > 20 µM
26 | EW-24 (Ewing sarcoma, semi-adherent) | 0.836 | 11.1 µM | 0.926 | > 10 µM | 0.993 | > 5.12 µM | 0.989 | > 20 µM
27 | EoL-1-cell (haematopoietic neoplasm, suspension) | 0.268 | 0.301 µM | 0.863 | 7.05 µM | 0.947 | > 5.12 µM | 0.834 | 11 µM
28 | FADU (head and neck, adherent) | 0.791 | 8.61 µM | 0.874 | 9.1 µM | 0.982 | > 5.12 µM | 0.988 | > 20 µM
29 | FLO-1 (oesophagus, adherent) | 0.555 | 1.88 µM | 0.885 | > 10 µM | 0.946 | > 5.12 µM | 0.922 | > 20 µM
30 | FTC-133 (thyroid, adherent) | 0.78 | 9.09 µM | 0.949 | > 10 µM | 0.985 | > 5.12 µM | 0.983 | > 20 µM
31 | Farage (B-cell lymphoma, suspension) | 0.348 | 0.516 µM | 0.992 | > 10 µM | 0.993 | > 5.12 µM | 0.981 | > 20 µM
